Reference: PubChem BioAssay AID1347428 (National Center for Advancing Translational Sciences (NCATS), 2020)
Hit rate of the full screen: of about 91,000 compounds, about 290 (0.32%) were called active. Inconclusive results, whose numbers are uncertain, are shown with a selection of clear calls. Calls follow the shape of the dose curve; as a rule, active = well fitted inhibition curve with a large enough effect; inconclusive = small, poorly fitted or top-dose-only effect; inactive = no such curve, though single readings can be large or run the other way. A potency beside an inconclusive call is a rough fit, not a confirmed value.

biological target: Single-stranded DNA cytosine deaminase (Homo sapiens) (UniProt Q9GZX7); experiment: Primary qHTS assay for inhibitors of Activation Induced Cytidine Deaminase (AID): AID signal; settings: AID deamination FRET fluorescence, UDG-coupled, 4 h; series mostly up to 115 µM; also: nearly all actives have a fitted effect of over 25% in size
Potency is read from the fitted curve at half-maximal effect; tags tell the direction and shape of the fitted curve.

UniProt Q9GZX7, sequence (Q9GZX7 whole entry, looked up): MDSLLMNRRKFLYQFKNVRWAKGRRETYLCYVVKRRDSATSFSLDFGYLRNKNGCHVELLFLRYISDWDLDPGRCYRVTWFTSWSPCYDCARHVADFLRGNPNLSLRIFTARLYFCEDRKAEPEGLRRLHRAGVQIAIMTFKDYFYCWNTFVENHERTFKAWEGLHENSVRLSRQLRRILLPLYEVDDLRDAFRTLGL

Row | SMILES | Potency
1 | CN1CCOC(CNCc2ccc3ccccc3c2)C1 (stereo not given) | inactive
2 | COc1cccc(-c2nn(C)c3sc(C(=O)NCc4ccc(OC)cc4OC)cc23)c1 | inconclusive: 79.4 µM [inhibitor, partial curve, poor fit]
3 | O=C(O)C(Sc1nccc2ccccc12)c1ccccc1 (stereo not given) | inactive
4 | CCCN(CCC)S(=O)(=O)c1ccc(OC)c2ncccc12 | inactive
5 | COc1ccccc1-c1c(C)nn2c(N3CCN(c4ccc(F)cc4)CC3)cc(C)nc12 | inconclusive: 39.8 µM [inhibitor, single point]
6 | O=C1CC(c2ccc(Br)cc2)c2c(ccc3ccccc23)N1 (stereo not given) | inconclusive: 39.8 µM [inhibitor, single point]
7 | COc1ccc(NC(=O)CCc2c(C)nc3cc(-c4cccc(F)c4)nn3c2C)cc1Cl | inconclusive: 79.4 µM [inhibitor, partial curve, poor fit]
8 | Cc1cc(C)c(NC(=O)C2CCCN(C(=O)c3cnn(-c4ccccc4)c3-n3cccc3)C2)c(C)c1 (stereo not given) | inconclusive: 89.1 µM [inhibitor, single point]
9 | CC(=O)Nc1ccc2nc(SCCOc3ccccc3Cl)sc2c1 | inconclusive: 22.4 µM [inhibitor, full curve, poor fit]
10 | Cc1cc(C)c2cc(C(=O)OCc3ccc(C(=O)N4CCCC4)cc3)[nH]c2c1 | inactive
11 | COc1cc(-c2nnc(SCCOc3ccccc3)o2)cc(OC)c1OC | inconclusive: 89.1 µM [inhibitor, single point]
12 | CCCCCN(CCCCC)C(=S)Nc1cccc(Cl)c1 | inactive
13 | CCn1c(C)c(C)c2cc(C(=O)NCCc3cc(OC)ccc3OC)ccc21 | inconclusive: 44.7 µM [inhibitor, partial curve, poor fit]
14 | CC(C)NC(=S)NNC(=O)c1ccco1 | inactive
15 | CCSc1nc2sc3c(c2c(=O)n1-c1ccc(C)c(Cl)c1)CCN(C(C)=O)C3 | inactive
16 | COc1ccccc1CCNC(=O)c1csc2ccccc12 | inactive
17 | O=C(COc1ccccc1Cl)Nc1ccc2nc(SCC(=O)N3CCOCC3)sc2c1 | inactive
18 | COc1ccc(-c2cc(C(F)(F)F)nc(SCC(=O)N(C)Cc3ccccc3)n2)cc1 | inconclusive: 56.2 µM [inhibitor, partial curve, poor fit]
19 | COc1ccc(CCNC(=O)c2ccc3c(c2)CCN3S(=O)(=O)c2ccc(C)cc2)cc1OC | inconclusive: 25.1 µM [inhibitor, full curve, poor fit]
20 | Clc1ccc(-c2nc3ccccc3o2)cc1 | inactive
21 | CCN(CC)c1nn2c(=O)c(C(=O)NCc3ccccc3Br)cnc2s1 | inconclusive: 39.8 µM [inhibitor, partial curve, poor fit]
22 | Cc1ccc(N(CC(=O)N2CCN(c3cccc(C)c3C)CC2)S(=O)(=O)c2c(C)nn(C)c2C)cc1 | inconclusive: 89.1 µM [inhibitor, partial curve, poor fit]
23 | CCC1CCCCN1C(=O)Cn1c(=O)n(-c2ccc(Cl)c(Cl)c2)c(=O)c2c(C)c(C(=O)N(C)C)sc21 (stereo not given) | inconclusive: 89.1 µM [inhibitor, single point]

Row | SMILES | Potency
24 | COc1ccc(C(=O)NCc2ccc3c(c2)CCN3C(=O)c2ccc(Cl)cc2)c(OC)c1 | inconclusive: 14.1 µM [inhibitor, full curve, poor fit]
25 | COc1ccc(OC)c(NC(=O)C2CCCN(c3ccc4nncn4n3)C2)c1 (stereo not given) | inactive
26 | CN1C(=O)c2ccccc2Sc2ccc(NC(=O)N3CCN(c4cccc(Cl)c4)CC3)cc21 | inconclusive: 20 µM [inhibitor, full curve]
27 | CN(Cc1ccccc1)S(=O)(=O)c1ccc(F)c(C(=O)Nc2cc(Cl)cc(Cl)c2)c1 | inconclusive: 35.5 µM [inhibitor, full curve, poor fit]
28 | Cc1ccc(CC(=O)N(Cc2nc(-c3ccccc3)no2)C2CCCCC2)cc1 | inactive
29 | O=C(NC1(c2ccccc2)CCC1)c1cccc(Cl)c1Cl | inactive
30 | CCn1cc(C(=O)NCCCOC(C)C)c(=O)c2cc(S(=O)(=O)N(C)C3CCCCC3)ccc21 | inconclusive: 50.1 µM [inhibitor, partial curve, poor fit]
31 | COc1cc(C2SCCS2)ccc1OC(=O)c1ccc2c(c1)NC(=O)CS2 | inactive
32 | CCOc1ccc(CNc2ccccc2)cc1 | inconclusive: 35.5 µM [inhibitor, single point]
33 | COc1ccc(CNC(=O)c2ccc3c(Cl)c4c(nc3c2)CCCC4)c(OC)c1 | inconclusive: 10 µM [inhibitor, full curve, poor fit]
34 | Cc1cccc(Nc2cc(C)nc3nc(Cc4ccc(Cl)cc4)nn23)c1 | inconclusive: 70.8 µM [inhibitor, single point]
35 | CC(Sc1cccc2cccnc12)C(=O)NC(=O)NC1CCCC1 (stereo not given) | inactive
36 | CC(=O)c1c(C)[nH]c(C(=O)C(C)Cl)c1C (stereo not given) | inactive
37 | CC(C)CCC(=O)N1CCN(Cc2ccco2)CC1 | inactive
38 | CCN(CC)CCNC(=O)c1ccc2c(=O)n3nc(Nc4cccc(Cl)c4C)sc3nc2c1 | inconclusive: 79.4 µM [inhibitor, partial curve, poor fit]
39 | CCOc1ccc(C(c2c(C)[nH]n(-c3ccccc3)c2=O)c2c(C)[nH]n(-c3ccccc3)c2=O)cc1OC | inconclusive: 31.6 µM [inhibitor, single point]
40 | COc1ccc(-c2nc3sc(CCNC(=O)C(=O)Nc4ccc(C)cc4C)c(C)n3n2)cc1 | inconclusive: 2.82 µM [inhibitor, partial curve, poor fit]
41 | CC(C)CN1CCC(CN2CCOCC2)CC1 | inactive
42 | CSc1ccc(C)c(C(=O)NCC2CC2)c1 | inactive
43 | CCCNC(=O)C1CCC(Cn2c(=O)c3sccc3n(CC(=O)N3CCCC(C)C3)c2=O)CC1 (stereo not given) | inconclusive: 89.1 µM [inhibitor, single point]
44 | Cc1cccc(-c2nnn3c2nc(NCCC(C)C)c2ccccc23)c1 | inconclusive: 56.2 µM [inhibitor, partial curve, poor fit]
45 | COc1cc(CN2C(=O)C(=O)c3cccc(C)c32)ccc1OCCC(C)C | inconclusive: 56.2 µM [inhibitor, partial curve, poor fit]
